Data on 24 compounds can be found in paper PMC4336329 (PLoS ONE, 2015).

The whole screen tested about 310,000 compounds, of which about 2,200 (0.71%) showed an effect of 50% or more. Effects have a minus sign here. Some of the results follow.

For this experiment, the target named is human ether-à-go-go-related gene (hERG) potassium channel (human, UniProt Q12809). As to the kind of experiment: primary screen, population patch clamp on CHO cells stably expressing hERG.
Chain of human ether-à-go-go-related gene (hERG) potassium channel (Q12809 whole entry, looked up): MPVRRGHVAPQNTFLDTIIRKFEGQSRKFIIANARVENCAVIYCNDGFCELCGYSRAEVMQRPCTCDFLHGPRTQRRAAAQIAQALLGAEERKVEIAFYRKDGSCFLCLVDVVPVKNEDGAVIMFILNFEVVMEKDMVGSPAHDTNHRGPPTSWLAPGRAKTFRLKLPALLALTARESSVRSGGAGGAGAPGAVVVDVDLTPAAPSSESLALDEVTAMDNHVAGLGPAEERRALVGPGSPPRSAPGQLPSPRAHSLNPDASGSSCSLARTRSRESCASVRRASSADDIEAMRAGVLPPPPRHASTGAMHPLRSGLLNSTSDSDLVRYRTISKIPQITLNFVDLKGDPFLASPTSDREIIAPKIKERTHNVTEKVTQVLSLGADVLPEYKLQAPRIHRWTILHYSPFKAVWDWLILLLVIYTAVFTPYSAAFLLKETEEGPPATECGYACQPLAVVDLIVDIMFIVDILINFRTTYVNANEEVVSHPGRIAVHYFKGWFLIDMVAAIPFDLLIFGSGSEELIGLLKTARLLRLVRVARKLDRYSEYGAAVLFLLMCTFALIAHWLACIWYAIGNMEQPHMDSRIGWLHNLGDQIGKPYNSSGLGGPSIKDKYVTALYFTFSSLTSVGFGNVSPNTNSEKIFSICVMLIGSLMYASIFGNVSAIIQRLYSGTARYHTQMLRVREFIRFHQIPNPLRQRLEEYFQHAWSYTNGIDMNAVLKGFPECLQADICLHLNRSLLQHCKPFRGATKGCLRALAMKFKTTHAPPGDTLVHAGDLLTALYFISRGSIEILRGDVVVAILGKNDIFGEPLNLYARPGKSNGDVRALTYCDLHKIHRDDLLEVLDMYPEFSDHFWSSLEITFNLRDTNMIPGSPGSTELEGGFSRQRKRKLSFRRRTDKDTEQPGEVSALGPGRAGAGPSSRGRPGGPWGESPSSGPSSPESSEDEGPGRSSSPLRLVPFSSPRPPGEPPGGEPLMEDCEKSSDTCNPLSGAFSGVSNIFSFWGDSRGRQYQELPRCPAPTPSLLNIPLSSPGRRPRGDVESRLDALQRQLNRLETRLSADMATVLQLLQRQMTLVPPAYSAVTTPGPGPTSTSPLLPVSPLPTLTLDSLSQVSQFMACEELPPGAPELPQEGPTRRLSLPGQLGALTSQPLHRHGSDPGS
Turning to `CCC(=O)N1CCCN(S(=O)(=O)c2ccc(C)cc2)C1c1ccc(OC)cc1` (stereo not drawn), the “hERG current change (%, negative = inhibition) at 1uM” value is 0.143%.

Consider `O=C(Nc1ccccc1)/C(=C\c1ccc(F)cc1)NC(=O)c1ccco1`, for which the “hERG current change (%, negative = inhibition) at 1uM” value was 10.2%.

Consider `O=C(OCc1ccccn1)c1ccc(COc2ccccc2Cl)o1`, for which the “hERG current change (%, negative = inhibition) at 1uM” value stood at 13.6%.

Take `CC(C)NC(=O)COC(=O)/C=C/c1ccc(F)cc1`: the “hERG current change (%, negative = inhibition) at 1uM” value turned out to be 0.898%.

As to `COc1ccccc1NC(=O)CSc1nnc(Cn2nnc(-c3ccccc3)n2)n1-c1ccccc1`, the “hERG current change (%, negative = inhibition) at 1uM” value was 5.19%.

As to `Cn1c(SCC(=O)Nc2ccccc2Oc2ccccc2)nnc1C1CC1`, the “hERG current change (%, negative = inhibition) at 1uM” value is recorded as 3.28%.

Turning to `Cc1nnsc1C(=O)N1CCCC(C(=O)c2ccc(C(F)(F)F)cc2)C1` (stereo not drawn), the “hERG current change (%, negative = inhibition) at 1uM” value came to 3.88%.

For `O=C(COc1ccc(Cl)cc1Cl)NCCSc1ccc(Cl)cc1`, the “hERG current change (%, negative = inhibition) at 1uM” value amounted to 9.14%.

Turning to `CCCN(CCC)CCOc1cc(C)ccc1C(C)C.O=C(O)C(=O)O`, the “hERG current change (%, negative = inhibition) at 1uM” value amounted to 5.42%.

On to `O=C(CSc1nnc(-c2ccccn2)n1Cc1ccccc1)NC1CCCC1`, for which the “hERG current change (%, negative = inhibition) at 1uM” value turned out to be 13.7%.

Take `CCOC(=O)c1c(C)[nH]c(C(=O)OCC(=O)Nc2ccc(Cl)cn2)c1C`: the “hERG current change (%, negative = inhibition) at 1uM” value was found to be 11%.

Regarding `CC(C)(C)c1ccc(C(=O)Nc2ccc(NC(=O)C(=O)O)cc2)o1`, the “hERG current change (%, negative = inhibition) at 1uM” value is 8.09%.

Take `CCCCC(CC)CNC(=O)C1CC=CCC1C(=O)O` (stereo not drawn): the “hERG current change (%, negative = inhibition) at 1uM” value stood at 15.9%.

`COc1ccc(C(=O)N2CCCC(Nc3ccc(C)c(C)c3)C2)cc1F` (stereo not drawn): the “hERG current change (%, negative = inhibition) at 1uM” value amounted to 10.6%.

Turning to `Cc1ccc(C2c3c(oc4ccccc4c3=O)C(=O)N2c2nncs2)cc1` (stereo not drawn), the “hERG current change (%, negative = inhibition) at 1uM” value is 9.76%.

For `COc1ccc(NS(=O)(=O)c2cc(NC(=O)C3CCCO3)ccc2N2CCCC2)cc1` (stereo not drawn), the “hERG current change (%, negative = inhibition) at 1uM” value is on record as 32.8%.

On to `COc1ccccc1N1CCN(C(=O)c2cc(C)oc2C)CC1`, for which the “hERG current change (%, negative = inhibition) at 1uM” value was found to be 12.7%.

As for `COc1ccc(OC)c(N2C(=O)CC(=O)NC2=O)c1`, the “hERG current change (%, negative = inhibition) at 1uM” value was found to be 14.8%.

As to `CN(C)S(=O)(=O)c1ccc(C(=O)N2CCN=C2SCc2cccnc2)cc1`, the “hERG current change (%, negative = inhibition) at 1uM” value amounted to 9.96%.

Consider `CN(CC(=O)NCc1ccccc1F)S(=O)(=O)c1ccc(Cl)cc1`, for which the “hERG current change (%, negative = inhibition) at 1uM” value was determined as 7.71%.

On to `CC(=O)N1CCc2c(sc3c2c(=O)n(Cc2ccccc2)c(=O)n3CC(=O)NCC2CCCO2)C1` (stereo not drawn), for which the “hERG current change (%, negative = inhibition) at 1uM” value turned out to be 3.5%.

Take `COc1cc(/C=N/N=C2/NC(=O)C(c3ccccc3)S2)ccc1O` (stereo not drawn): the “hERG current change (%, negative = inhibition) at 1uM” value was found to be 11.8%.

For the compound `COc1ccc(CCC(=O)OCC(=O)c2cccc(OC)c2)cc1`, the “hERG current change (%, negative = inhibition) at 1uM” value is on record as 1.8%.

On to `CCn1cnc2c1c(=O)n(CC(=O)O)c(=O)n2Cc1ccccc1`, for which the “hERG current change (%, negative = inhibition) at 1uM” value is given as 17.9%.
